According to PubChem BioAssay AID2675 (National Center for Advancing Translational Sciences (NCATS), 2010):
The whole screen tested about 280,000 compounds, of which about 100 (0.036%) were called active. Inconclusive results, whose numbers are uncertain, are shown with a selection of clear calls. Calls come from the whole dose curve; as a rule, active = well fitted inhibition curve with a large enough effect in the signal ratio, with a control signal flat (not every such curve was filed as active); inconclusive = small, poorly fitted or top-dose-only effect, or effect the other way, or a change in a side signal; inactive = no such curve, though single readings can be large or run the other way; the % refers to the signal ratio. Potencies beside an inconclusive call are fits to weak or partial responses and may not hold up. A note “side channel” means that the fit belongs to a control or component signal, not to the main read-out.

molecular target: Muscleblind-like protein 1 (Homo sapiens) (UniProt Q9NR56); assay: qHTS Assay for Inhibitors of MBNL1-poly(CUG) RNA binding; details: TR-FRET MBNL1-His/biotin-(CUG)12 binding, 665/545 ratio; activity change, negative = inhibition: at 57.5 µM (top of the series)
Summary of the method: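 TR-FRET between His-tagged MBNL1 and biotin-(CUG)12 RNA, detected with Tb anti-His antibody (0.055 ng/ul) and streptavidin-XL665 (5 nM), 60 min at room temperature. Compounds titrated 92 nM to 58 uM; 665/545 nm ratio normalized to buffer and complex controls.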
% is set by controls: 0 for no effect and ±100 for the full control effect; potency is the fitted concentration of half-maximal effect; tags give direction and shape of the fitted curve or compound fluorescence and quenching.

Chain of UniProt Q9NR56 (Q9NR56 whole entry, looked up): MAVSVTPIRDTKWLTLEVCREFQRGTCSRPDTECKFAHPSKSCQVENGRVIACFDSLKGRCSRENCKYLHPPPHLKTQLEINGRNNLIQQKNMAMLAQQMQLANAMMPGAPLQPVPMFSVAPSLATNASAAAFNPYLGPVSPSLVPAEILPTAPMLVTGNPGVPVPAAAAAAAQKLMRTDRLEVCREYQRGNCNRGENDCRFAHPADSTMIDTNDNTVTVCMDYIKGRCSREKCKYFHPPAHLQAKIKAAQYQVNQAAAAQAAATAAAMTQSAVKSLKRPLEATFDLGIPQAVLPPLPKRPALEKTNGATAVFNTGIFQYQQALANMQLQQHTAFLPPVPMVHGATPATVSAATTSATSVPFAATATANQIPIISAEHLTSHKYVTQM

| SMILES | Potency | activity change, negative = inhibition |
| --- | --- | --- |
| COc1ncccc1C(=O)N1CCC(n2nccc2NC(=O)CC(C)C)CC1 | inactive |  |
| CC(=O)c1cc2c(cc1NC(=O)CCC1CCCC1)OCO2 | inconclusive: 100 µM [inhibitor, single point] |  |
| O=C(N/N=C/c1ccc([N+](=O)[O-])o1)c1cc2ccccc2o1 | inconclusive: 8.91 µM [quencher, side channel, partial curve] |  |
| CN(C)CCNC(=S)NC1CCCCC1 | inactive |  |
| CCC1(CC)NC(=O)N(CC(=O)OC(C)C(=O)Nc2cc([N+](=O)[O-])ccc2OC)C1=O (centres undefined) | inconclusive: 14.1 µM [quencher, side channel, partial curve] |  |
| O=C(Cn1cc(C(F)(F)F)ccc1=O)N/N=C/c1ccc(Cl)cc1Cl | inconclusive: 2.82 µM [fluorescent, side channel, full curve, poor fit] |  |
| Cc1ccc(NC(=O)COC(=O)C2CCC(=O)N2)c([N+](=O)[O-])c1 (centres undefined) | inconclusive: 15.8 µM [quencher, partial curve] |  |
| CCS(=O)(=O)N1CCN(C(=O)c2cccc3ccccc23)CC1 | inactive |  |
| Cc1ccc(C)c2c1[nH]c1ccccc12 | inactive |  |
| Cc1ccc(O)c(NC(=O)CSc2ccc(Cl)cc2)c1 | inactive |  |
| CCn1c(/C=C/c2cc[n+](C)cc2)nc2ccccc21 | inconclusive: 12.6 µM [quencher, side channel, partial curve] |  |
| CC(=O)N1CCN(C(=S)c2ccc(Cl)cc2)CC1 | inconclusive: 0.1 µM [fluorescent, side channel, full curve, poor fit] |  |
| CCn1nnnc1SCC(=O)c1ccc(C)cc1C | inconclusive: 7.08 µM [quencher, side channel, single point] |  |
| Cc1cc(C)c(S(=O)(=O)N/N=C/c2ccc([N+](=O)[O-])o2)c(C)c1 | inconclusive: 14.1 µM [quencher, side channel, partial curve] |  |
| O=C1[C@@H]2Cc3c([nH]c4ccccc34)C(c3ccccc3)N2C(=O)CN1C1CCN(Cc2ccccc2)CC1 (some centres undefined) | inactive |  |
| C=Cn1c(C(=O)O)ccc1-c1ccc(OC)cc1 | inconclusive: 14.1 µM [quencher, side channel, partial curve] |  |
| Cc1cc(Nc2ccccc2C(=O)O)nc2nc3ccccc3c(=O)n12 | inconclusive: 7.08 µM [quencher, side channel, single point] |  |
| CC(=O)NCCN=Cc1sc2ccccc2c1O | inconclusive: 28.2 µM [quencher, side channel, single point] |  |
| N#CC1=C(N)C2=CCCC[C@H]2[C@H](c2ccc(Br)cc2)C1(C#N)C#N | inactive |  |
| CCOC(=O)N1CCN(C(=O)c2ccc([N+](=O)[O-])cc2Cl)CC1 | inconclusive: 4.47 µM [quencher, side channel, full curve] |  |
| CCOc1ccc(S(=O)(=O)N2CCN(CC(O)COc3cccc([N+](=O)[O-])c3)CC2)cc1 (centres undefined) | inconclusive: 25.1 µM [quencher, side channel, partial curve] |  |
| Cc1ccc(C(=O)NCC(=O)N/N=C/c2cccs2)cc1[N+](=O)[O-] | inconclusive: 39.8 µM [quencher, single point] |  |

| SMILES | Potency | activity change, negative = inhibition |
| --- | --- | --- |
| N=C1/C(=C\c2coc3ccccc3c2=O)C(=O)N=C2SC=CN12 | inconclusive: 15.8 µM [quencher, side channel, partial curve] |  |
| COCCCNC(=O)c1c(N)n(-c2ccccc2)c2nc3ccccc3nc12 | inconclusive: 10 µM [quencher, side channel, partial curve] |  |
| CCCCCCCNC(=O)C1(CC2CC(c3ccc(Cl)cc3)=NO2)CCN(C(=O)c2ccccc2)CC1 (centres undefined) | inactive |  |
| Cc1[nH]nc2c1C(c1ccc(O)cc1)C1=C(CC(C)(C)CC1=O)N2 (centres undefined) | inactive |  |
| COc1ccc(S(=O)(=O)Cc2ccc(C(=O)N3CCN(Cc4ccccc4)CC3)o2)cc1 | inactive |  |
| Cn1c(O)c(N=NC(=O)CNC(=O)/C=C/c2ccccc2)c2ccccc21 | inconclusive: 3.16 µM [quencher, side channel, full curve] |  |
| Nc1ccc(-c2nc3ccc(N)cc3[nH]2)cc1 | inactive |  |
| CCc1nnc(N/N=C/c2ccccc2Cl)n1N | inconclusive: 17.8 µM [quencher, side channel, partial curve] |  |
| Cc1oc2ccc(O)cc2c1C(=O)OC(C)C | inconclusive: 63.1 µM [inhibitor, partial curve] |  |
| CSc1nnc(-c2ccc([N+](=O)[O-])cc2)o1 | inconclusive: 12.6 µM [quencher, side channel, partial curve] |  |
| CCCCCC(=O)NC(=S)Nc1ccc(NC(=O)c2ccco2)cc1 | inactive |  |
| N#Cc1ccc(C(=O)N2CCN(c3ncccn3)CC2)cc1 | inactive |  |
| CCO/N=C(/C)c1c(O)c(C)c(-c2ccccc2)n(-c2ccccc2)c1=O | inconclusive: 39.8 µM [quencher, side channel, single point] |  |
| O=C(c1ccc(F)cc1)N1C2CCC1CC(O)(c1ccc(F)cc1)C2 (centres undefined) | inactive |  |
| COC(=O)C1CCCCN1C(=O)c1cc(COc2cccc3cnccc23)on1 (centres undefined) | inconclusive: 20 µM [quencher, single point] |  |
| COc1ccc(N2CCN(CC(=O)Nc3sccc3C#N)CC2)cc1 | inconclusive: 8.91 µM [fluorescent, side channel, full curve, poor fit] |  |
| COc1cccc(C(=O)NC2=NCCS2)c1 | inconclusive: 7.94 µM [quencher, side channel, single point] |  |
| C/C(=N\NC(=O)Cc1cccn1C)c1ccc([N+](=O)[O-])cc1 | inconclusive: 17.8 µM [quencher, side channel, partial curve] |  |
| O=C(Nc1ccc(F)cc1)C(Sc1nnc2ccccn12)c1ccccc1 (centres undefined) | inconclusive: 8.91 µM [quencher, side channel, partial curve] |  |
| COc1ccccc1Nc1nc(NCCCN(C)C)nc(N)c1[N+](=O)[O-] |  | inconclusive: 19.3% [phenotype inactive] |
| COc1ccc(-n2nc(C(=O)NCC(=O)NCC3CCCO3)c3ccccc3c2=O)cc1 (centres undefined) | inconclusive: 14.1 µM [quencher, side channel, partial curve] |  |
| O=[N+]([O-])c1cccnc1NCc1cccs1 | inconclusive: 14.1 µM [quencher, side channel, partial curve] |  |

| SMILES | Potency | activity change, negative = inhibition |
| --- | --- | --- |
| CCOC(=O)c1cc(C(=O)OCC)cc(-n2cc(O)c(C(=O)OCC)n2)c1 | inactive |  |
| N=c1c(C(=O)NCCN2CCOCC2)cc2c(=O)n3ccccc3nc2n1Cc1ccc(F)cc1 | inconclusive: 3.16 µM [quencher, full curve] |  |
| COc1ccc(C(NC(=O)CNC(C)=O)C(=O)Nc2ccc(C(C)C)cc2)cc1 (centres undefined) | inconclusive: 31.6 µM [quencher, side channel, single point] |  |
| COCCCn1c(=NC(C)=O)c(C#N)cc2c(=O)n3cccc(C)c3nc21 | inconclusive: 2.82 µM [quencher, single point] |  |
| Cc1cc(C)nc(NC(=O)c2cc([N+](=O)[O-])cc([N+](=O)[O-])c2)n1 | inconclusive: 11.2 µM [quencher, side channel, partial curve] |  |
| CC(=O)c1cccc(NC(=O)COc2cc3oc(=O)c(CC(C)O)c(C)c3cc2Cl)c1 (centres undefined) | inactive |  |
| C=CCn1c(=O)[nH]c2nc3cc(N=CN(C)C)c(C)cc3nc2c1=O | inconclusive: 3.98 µM [quencher, partial curve] |  |
| Cc1nc2cc(NC(=O)c3ccc([N+](=O)[O-])s3)ccc2s1 | inconclusive: 1.78 µM [quencher, side channel, full curve] |  |
| CNc1ccncc1S(=O)(=O)NC | inactive |  |
| COc1ccc(-c2oc3ncn(CCN4CCOCC4)c(=N)c3c2-c2ccc(OC)cc2)cc1 | inconclusive: 8.91 µM [quencher, side channel, partial curve] |  |
| Cn1c(SCc2ccccc2C#N)nc2ccccc2c1=O | inconclusive: 35.5 µM [fluorescent, side channel, single point] |  |
| C/C(=N/NC(=O)C(O)(c1ccccc1)c1ccccc1)c1ccc([N+](=O)[O-])o1 | inconclusive: 10 µM [quencher, side channel, partial curve] |  |
| COc1ccc(CCNC(=O)CCC(=O)N2CCN(S(=O)(=O)c3ccccc3)CC2)cc1OC | inconclusive: 4.47 µM [quencher, side channel, single point] |  |
| O=C(O)C1Nc2c(cccc2C(F)(F)F)C2C=CCC12 (centres undefined) | inactive |  |
| O=C(CC1SCCNC1=O)Nc1cc(Cl)cc(Cl)c1 (centres undefined) | inconclusive: 126 µM [inhibitor, partial curve] |  |
| NC(=O)CC[C@@H]1NC(=O)[C@H](CO)NC(=O)c2cc([N+](=O)[O-])cc(I)c2NCC[C@@H](C(N)=O)NC1=O | inconclusive: 10 µM [quencher, side channel, partial curve] |  |
| CC(=O)c1ccc(-c2nnc(CCC(=O)N(C)Cc3cnc4ccccn34)o2)s1 | inconclusive: 10 µM [quencher, side channel, partial curve] |  |
| Cn1ccc(=NC=C(C#N)C#N)c2ccccc21 | inconclusive: 11.2 µM [quencher, side channel, partial curve] |  |
| CCCCCCCC(=O)N/N=C/c1ccc(Br)cc1 | inactive |  |
| O=[N+]([O-])c1ccc(N=Nc2ccc(O)cc2O)cc1 | inconclusive: 11.2 µM [quencher, side channel, partial curve] |  |
